Experimental data as given in the supplement of paper PMC4967469.
IC50 is the fitted dose that halves viability relative to control wells, and lower means more sensitive; fits outside the tested doses are given as limits. AUC sums up the same curve from the lowest dose to the 256-fold higher top dose; it is 1 without any effect and falls as sensitivity rises. The top dose, if marked as inferred, is not printed in the source and was worked back from the curve model.

Experiments:
Assay in all cases: Viability of human cancer cell lines after 72 h of drug (GDSC screen)
QL-XII-47 = compound: C=CC(=O)N1CCc2ccc(-n3c(=O)ccc4cnc5ccc(-c6cnn(C)c6)cc5c43)cc21 [QL-XII-47]; conditions: top dose 10.24 µM; top dose inferred
Experimental: (§1)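 Human cancer cell lines in 384-well plates, medium with 10% serum, drug for 72 h over a 256-fold dose range (nine 2-fold or five 4-fold steps up to the top dose). Adherent lines were fixed and stained with the nucleic acid dye Syto60, suspension lines read with resazurin; signal relative to control wells, capped at 0 and 100%. One two-parameter sigmoid per drug and line, fitted in a mixed model over all curves with the slope shared within a line.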

CCT007093 = compound: O=C1/C(=C/c2cccs2)CC/C1=C\c1cccs1 [CCT007093]; conditions: top dose 6.6 µM; top dose inferred
Experimental: as §1

BAY 61-3606 = compound: COc1ccc(-c2cc3nccn3c(Nc3ncccc3C(N)=O)n2)cc1OC [BAY 61-3606]; conditions: top dose 8 µM; top dose inferred
Experimental: as §1

KIN001-266 = compound: CCN1CCC(n2cc(CNc3cc(Cl)c4ncc(C#N)c(Nc5ccc(F)c(Cl)c5)c4c3)nn2)CC1 [KIN001-266]; conditions: top dose 20 µM; top dose inferred
Experimental: as §1

Cell Line | AUC (QL-XII-47) | IC50 (QL-XII-47) [µM] | AUC (CCT007093) | IC50 (CCT007093) [µM] | AUC (BAY 61-3606) | IC50 (BAY 61-3606) [µM] | AUC (KIN001-266) | IC50 (KIN001-266) [µM]
SAT (head and neck, adherent) | 0.955 | > 10.2 | 0.899 | > 6.6 | 0.911 | > 8 | 0.875 | > 20
SBC-1 (small cell lung carcinoma, suspension) | 0.986 | > 10.2 | 0.989 | > 6.6 | 0.893 | > 8 | 0.871 | 17.6
SBC-3 (small cell lung carcinoma, adherent) | 0.197 | 0.0899 | 0.989 | > 6.6 | 0.492 | 0.478 | 0.874 | 16.4
SBC-5 (small cell lung carcinoma, adherent) | 0.979 | > 10.2 | 0.953 | > 6.6 | 0.906 | 7.32 | 0.993 | > 20
SCC-4 (head and neck, adherent) | 0.955 | > 10.2 | 0.937 | > 6.6 | 0.85 | 7.88 | 0.96 | > 20
SCC-9 (head and neck, adherent) | 0.467 | 0.509 | 0.946 | > 6.6 | 0.972 | > 8 | 0.794 | 12.2
SCC-15 (head and neck, adherent) | 0.839 | > 10.2 | 0.977 | > 6.6 | 0.886 | > 8 | 0.868 | > 20
SCC-25 (head and neck, adherent) | 0.579 | 1.08 | 0.953 | > 6.6 | 0.929 | > 8 | 0.808 | 12
SCH (stomach, adherent) | 0.884 | > 10.2 | 0.949 | > 6.6 | 0.988 | > 8 | 0.948 | > 20
SF126 (glioma, adherent) | 0.593 | 1.16 | 0.986 | > 6.6 | 0.934 | > 8 | 0.959 | > 20
SF268 (glioma, adherent) | 0.647 | 1.69 | 0.98 | > 6.6 | 0.76 | 3.03 | 0.856 | 18.1
SF295 (glioma, adherent) | 0.609 | 1.31 | 0.971 | > 6.6 | 0.902 | > 8 | 0.883 | > 20
SF539 (glioma, adherent) | 0.358 | 0.271 | 0.974 | > 6.6 | 0.892 | 7.76 | 0.861 | 14.3
SH-4 (melanoma, adherent) | 0.796 | 8.27 | 0.975 | > 6.6 | 0.9 | > 8 | 0.806 | 18
SHP-77 (small cell lung carcinoma, semi-adherent) | 0.752 | 3.08 | 0.991 | > 6.6 | 0.903 | > 8 | 0.883 | 17.5
SIMA (neuroblastoma, adherent) | 0.78 | 4.8 | 0.985 | > 6.6 | 0.839 | 6.49 | 0.786 | 9.91
SJRH30 (rhabdomyosarcoma, adherent) | 0.582 | 1.08 | 0.974 | > 6.6 | 0.947 | > 8 | 0.875 | > 20
SJSA-1 (bone, adherent) | 0.739 | 3.4 | 0.983 | > 6.6 | 0.775 | 3.57 | 0.858 | 20
SK-CO-1 (large intestine, adherent) | 0.989 | > 10.2 | 0.989 | > 6.6 | 0.922 | > 8 | 0.963 | > 20
SK-ES-1 (Ewing sarcoma, semi-adherent) | 0.854 | 8.91 | 0.977 | > 6.6 | 0.636 | 1.22 | 0.898 | > 20
SK-HEP-1 (liver, adherent) | 0.98 | > 10.2 | 0.989 | > 6.6 | 0.718 | 1.97 | 0.879 | 18.2

Cell Line | AUC (QL-XII-47) | IC50 (QL-XII-47) [µM] | AUC (CCT007093) | IC50 (CCT007093) [µM] | AUC (BAY 61-3606) | IC50 (BAY 61-3606) [µM] | AUC (KIN001-266) | IC50 (KIN001-266) [µM]
SK-LMS-1 (soft tissue, adherent) | 0.552 | 0.88 | 0.96 | > 6.6 | 0.915 | > 8 | 0.88 | 19
SK-LU-1 (lung adenocarcinoma, adherent) | 0.752 | 4.25 | 0.977 | > 6.6 | 0.687 | 1.95 | 0.862 | > 20
SK-MEL-1 (melanoma, suspension) | 0.933 | > 10.2 | 0.993 | > 6.6 | 0.955 | > 8 | 0.856 | 12.8
SK-MEL-2 (melanoma, adherent) | 0.883 | > 10.2 | 0.987 | > 6.6 | 0.661 | 1.43 | 0.975 | > 20
SK-MEL-3 (melanoma, adherent) | 0.915 | > 10.2 | 0.927 | > 6.6 | 0.806 | 4.88 | 0.759 | 8.06
SK-MEL-24 (melanoma, adherent) | 0.983 | > 10.2 | 0.968 | > 6.6 | 0.977 | > 8 | 0.832 | 16.8
SK-MEL-28 (melanoma, adherent) | 0.748 | 3.25 | 0.966 | > 6.6 | 0.975 | > 8 | 0.79 | 8.73
SK-MEL-30 (melanoma, adherent) | 0.52 | 0.729 | 0.981 | > 6.6 | 0.937 | > 8 | 0.867 | 19.8
SK-MES-1 (lung squamous cell carcinoma, adherent) | 0.815 | 6.25 | 0.984 | > 6.6 | 0.7 | 1.93 | 0.84 | 15.6
SK-MM-2 (myeloma, suspension) | 0.557 | 0.923 | 0.987 | > 6.6 | 0.931 | > 8 | 0.813 | 11.4
SK-N-AS (neuroblastoma, adherent) | 0.424 | 0.383 | 0.968 | > 6.6 | 0.839 | 6.71 | 0.981 | > 20
SK-N-DZ (neuroblastoma, adherent) | 0.988 | > 10.2 | 0.976 | > 6.6 | 0.918 | > 8 | 0.871 | 18.5
SK-N-FI (neuroblastoma, adherent) | 0.408 | 0.359 | 0.989 | > 6.6 | 0.955 | > 8 | 0.881 | > 20
SK-N-SH (neuroblastoma, adherent) | 0.63 | 1.46 | 0.975 | > 6.6 | 0.727 | 2.19 | 0.854 | 15.5
SK-OV-3 (ovary, adherent) | 0.54 | 0.848 | 0.981 | > 6.6 | 0.833 | 7.08 | 0.871 | > 20
SK-PN-DW (Ewing sarcoma, adherent) | 0.801 | 5.23 | 0.973 | > 6.6 | 0.835 | 5.53 | 0.828 | 13
SK-UT-1 (soft tissue, adherent) | 0.57 | 0.974 | 0.989 | > 6.6 | 0.849 | 5.19 | 0.928 | > 20
SKG-IIIa (cervix, adherent) | 0.982 | > 10.2 | 0.966 | > 6.6 | 0.949 | > 8 | 0.972 | > 20
SKN (uterus, adherent) | 0.602 | 1.29 | 0.976 | > 6.6 | 0.796 | 4.65 | 0.866 | > 20
SKN-3 (head and neck, adherent) | 0.816 | 7.03 | 0.905 | > 6.6 | 0.896 | > 8 | 0.87 | > 20
SLVL (B-cell lymphoma, suspension) | 0.588 | 1.13 | 0.986 | > 6.6 | 0.702 | 1.92 | 0.864 | 19.3

Cell Line | AUC (QL-XII-47) | IC50 (QL-XII-47) [µM] | AUC (CCT007093) | IC50 (CCT007093) [µM] | AUC (BAY 61-3606) | IC50 (BAY 61-3606) [µM] | AUC (KIN001-266) | IC50 (KIN001-266) [µM]
SN12C (kidney, adherent) | 0.885 | > 10.2 | 0.962 | > 6.6 | 0.974 | > 8 | 0.985 | > 20
SNB75 (glioma, adherent) | 0.715 | 3.48 | 0.979 | > 6.6 | 0.948 | > 8 | 0.979 | > 20
SNG-M (endometrium, adherent) | 0.47 | 0.53 | 0.973 | > 6.6 | 0.728 | 2.19 | 0.828 | 12
SNU-182 (liver, adherent) | 0.796 | 5.05 | 0.983 | > 6.6 | 0.898 | > 8 | 0.907 | > 20
SNU-387 (liver, adherent) | 0.59 | 1.17 | 0.984 | > 6.6 | 0.753 | 3.02 | 0.847 | 18
SNU-398 (liver, adherent) | 0.407 | 0.353 | 0.985 | > 6.6 | 0.644 | 1.28 | 0.869 | 19.8
SNU-423 (liver, adherent) | 0.288 | 0.144 | 0.983 | > 6.6 | 0.858 | > 8 | 0.85 | 19.3
SNU-449 (liver, adherent) | 0.681 | 2.16 | 0.976 | > 6.6 | 0.789 | 3.91 | 0.868 | > 20
SNU-C1 (large intestine, suspension) | 0.783 | 6.67 | 0.924 | > 6.6 | 0.978 | > 8 | 0.941 | > 20
SR (lymphoid neoplasm, suspension) | 0.375 | 0.301 | 0.952 | > 6.6 | 0.519 | 0.559 | 0.773 | 7.01
ST486 (Burkitt lymphoma, suspension) | 0.456 | 0.492 | 0.982 | > 6.6 | 0.535 | 0.615 | 0.545 | 1.63
SU8686 (pancreas, adherent) | 0.749 | 3.68 | 0.978 | > 6.6 | 0.951 | > 8 | 0.902 | > 20
SU-DHL-4 (B-cell lymphoma, suspension) | 0.684 | 1.78 | 0.995 | > 6.6 | 0.804 | 2.76 | 0.916 | 14.3
SU-DHL-5 (B-cell lymphoma, suspension) | 0.447 | 0.475 | 0.988 | > 6.6 | 0.41 | 0.302 | 0.901 | 14.4
SU-DHL-6 (B-cell lymphoma, suspension) | 0.409 | 0.384 | 0.995 | > 6.6 | 0.512 | 0.535 | 0.905 | 14.4
SUIT-2 (pancreas, adherent) | 0.805 | 5.46 | 0.981 | > 6.6 | 0.881 | > 8 | 0.763 | 7.53
SUP-B15 (lymphoblastic leukaemia, suspension) | 0.405 | 0.356 | 0.985 | > 6.6 | 0.641 | 1.21 | 0.841 | 13.1
SUP-HD1 (Hodgkin lymphoma, suspension) | 0.545 | 0.845 | 0.983 | > 6.6 | 0.635 | 1.15 | 0.784 | 8.08
SUP-M2 (anaplastic large cell lymphoma, suspension) | 0.37 | 0.307 | 0.99 | > 6.6 | 0.705 | 1.6 | 0.899 | 14.6
